# Reference: ChEMBL document CHEMBL1157539, “Thousands of chemical starting points for antimalarial lead identification” (Nature, 2010)
# Several values for one entry are separate records, joined by “and”; a condition that tells them apart may be missing. Identical values can stand only once. In all, about 13,000 compounds were measured (“IFI”: median about 4, highest 2% from about 17 on). This is one part of the list.
# Assay: GSK_TCMDC: Inhibition Frequency Index (IFI). The number of non-kinase HTS assays where a compound showed > 50 % inhibition, expressed as a percentage of the number of such assays in which the compound was tested (-0 is zero)
# Format: functional
row,Compound,IFI
1,Cc1ccccc1C1CCN(C2CCC(NC(=O)/C=C/c3cc(C(F)(F)F)ccc3F)CC2)CC1 (stereo not drawn),8.33%
2,O=C(NC1CCCCN(Cc2ccccc2O)C1)c1cc(F)cc(F)c1 (stereo not drawn),-0%
3,CCN(CC)CCN(Cc1ccc(-c2ccc(C(F)(F)F)cc2)cc1)C(=O)Cn1c(CCc2cccc(F)c2F)cc(=O)c2c1CCCC2,8.57%
4,COc1ccccc1N1CCN(C(C(=O)NCc2cccc(F)c2)c2ccc(C)cc2)CC1 (stereo not drawn),0.69%
5,CCC[C@@H]([C@@H](CC1CCCCC1)C(=O)N[C@H](C(=O)Nc1nccs1)C(C)(C)SC)N(O)C=O,5.84%
6,CN(C)CCn1c(=N)n(CC(O)c2ccc(Cl)c(Cl)c2)c2ccccc21 (stereo not drawn),2.21%
7,Cc1nnsc1C(=O)Nc1cccc(-c2ccc(-c3nc4cc(F)ccc4[nH]3)s2)c1,8.85%
8,COc1ccc(O)c(C(=O)c2cc(C(=O)NC3CCCCC3)c(=O)n(C3CCCCC3)c2)c1,10.8%
9,CC(C)CCNc1nc(NCc2ccccc2)c2cc(O)ccc2n1,10.1%
10,COCCCC1C(=O)OC2CCCC21 (stereo not drawn),-0%
11,Cc1c(C)n(C2CCCCC2)c2ncnc(OC3CCN(CC(=O)N4CCCC4)CC3)c12,6.67%
12,CC(=O)c1ccc(N2CCN(CCC3(c4ccc(Cl)c(Cl)c4)COCN(C(=O)c4ccccc4)C3)CC2)cc1 (stereo not drawn),4.9%
13,CC(=O)Nc1ccc(C(=O)Nc2cccc(-c3ccc(-c4nc5cc(F)ccc5[nH]4)s3)c2)cn1,3.7%
14,COc1ccc(C[C@H](N)C(=O)N[C@H]2[C@@H](O)[C@H](n3cnc4c(N(C)C)ncnc43)O[C@@H]2CO)cc1,10% and 8.45%
15,CCCCNCc1ccc(-c2nc(CN(CCCN3CCN(C)CC3)C(=O)Nc3cccc(Cl)c3)cs2)cc1,6.71%
16,N#Cc1cccc(C(=O)Nc2cccc(-c3cccc(CN4CCNCC4)c3)c2)c1,3.96%
17,CN1CCCN(c2ccnc3cc4c(cc23)N(C(=O)c2ccc(C(F)(F)F)cc2)CC4)CC1,1.41%
18,CC(C)(C)c1cc(C(=O)N2CCN(c3cnccn3)CC2)n(Cc2ccccc2)n1,0%
19,N#C/N=C(\NCCCCCCCCN/C(=N\C#N)NCCSCc1csc(N=C(N)N)n1)NCCCSc1csc(N=C(N)N)n1,9.3%
20,CCN(CC)CCCNc1cc[n+]([O-])c2cc3ccccc3cc12,1.47%
21,Cc1cc(NCCc2ccccc2)nc(NC(=N)Nc2cccc(F)c2)n1,6.77%
22,CC(=O)Nc1ccc2[nH]cc(C3CCN(CC4CCC(NC(=O)/C=C/c5ccccc5Cl)CC4)CC3)c2n1 (stereo not drawn),0.7%

row,Compound,IFI
1,Cc1cc(Nc2cccc(C(F)(F)F)c2)nc(Nc2cccc(C(F)(F)F)c2)n1,4.35%
2,Cc1ccc(F)c(OCC2CCN(c3ncc(C(=O)NC4CC4)cc3Cl)CC2)c1,17.3%
3,CC1(C)CCCN(C(=O)c2cccc(-n3nc(-c4ccc(Cl)cc4)cc3N)c2)C1,5.56%
4,FC(F)(F)c1cc(C(F)(F)F)c2cc(CNCCCNc3nc4ccccc4[nH]3)[nH]c2c1,11.2%
5,O=C(CCCCCNC(=O)c1ccc(O)c(-c2ccc(Cl)c(Cl)c2)c1)NCCN1CCOCC1,-0%
6,COc1ccc(-c2nc(NC(=O)Cc3ccc4c(c3)OCCO4)sc2C)cc1,5.26%
7,O=C(Nc1nc(-c2ccccn2)cs1)c1ccc(S(=O)(=O)N2CCc3ccccc32)cc1,4.65%
8,Cc1ccc(O)cc1Nc1ccnc2ccc(-c3cccc(CNCCN(C)C)c3)cc12,4.41%
9,COc1ccc2nccc(NCC3(O)CCN(CCc4ccc5c(c4)OCCO5)CC3)c2n1,6.62%
10,COc1ccc(CNC(=O)NC2CCN(c3ccnc(Nc4cc(OC)c(OC)c(OC)c4)n3)C2)cc1 (stereo not drawn),3.08%
11,Cc1ccc(Cn2cnc3cc(C(=O)Nc4ccc(-c5ccc(CN(C)C)cc5)cc4)ccc3c2=O)o1,9.26%
12,Cc1cc(N2CCCC2)nc(Nc2ccc(NC(=O)C3CCCC3)cc2)n1,9.62%
13,COCCN1CCC(C(=O)NCC(C)(C)c2nc(-c3ccc(Br)c(O)c3)c(-c3ccncc3)[nH]2)CC1,-0%
14,COc1cc(C(=O)N2COCC(CCCN3CCC(N4CCCC4)CC3)(c3ccc(Cl)c(Cl)c3)C2)cc(OC)c1OC (stereo not drawn),2.78%
15,CN/C(=N\O)NCCN(C)C,1.43%
16,Cn1c2c(c3ccccc31)CN(CCC1(c3ccc(Cl)c(Cl)c3)CN(C(=O)Cc3ccccc3)CCO1)CC2 (stereo not drawn),4.41%
17,COCCN1CCN(Cc2ccc(-c3ccc(-c4nc5cc(F)ccc5[nH]4)cc3)cc2)CC1,4.9%
18,Cc1c(C(=O)N(C)C)sc2c1c(=O)n(Cc1ccccc1)c(=O)n2CC(=O)Nc1ccccc1F,0%
19,CC(=O)CSC(C=Cc1ccc(N(C)C)cc1)=Nc1ccccc1,10.6%
20,COc1cccc(C(=O)NCCc2cccc(Cl)c2)c1OCc1ccccc1,2.14%
21,Nc1nc(N)c2c3c(ccc2n1)CCC3,1.46%
22,Oc1ccc2c(CNCCc3ccccc3)c(O)ccc2c1CNCCc1ccccc1,6.67%

row,Compound,IFI
1,Cc1cc(-c2cccc(CNCc3ccccc3)c2)ccc1S(=O)(=O)NCCN1CCCC1,12.4%
2,O=C(c1cccc(-c2ccc(-c3nc4cc(C(F)(F)F)ccc4[nH]3)cc2)c1)N1CCCCC1CN1CCC(O)C1 (stereo not drawn),4.42%
3,O=C(Nc1ccc(-c2nc3ccccc3[nH]2)cc1)c1ccc(S(=O)(=O)N2CCc3ccccc32)cc1,-0%
4,Fc1ccc2[nH]c(-c3ccc(-c4ccc(CN5CCN(c6cnccn6)CC5)cc4)s3)nc2c1,7.04%
5,CC(=O)NCCNc1nccc(N2CCc3ncnc(Nc4ccc(OCc5cccc(F)c5)c(Cl)c4)c3C2)n1,5.59%
6,CCCC(=O)Nc1ccc(OCCCCN(CC(C)(C)C)c2ccc(C#N)c(C(F)(F)F)c2)cc1,3.13%
7,COc1ccc(C(=O)CCC(=O)N(CCSC(C)(C)C)Cc2ccc(-c3ccc(CNCCc4ccc(S(C)(=O)=O)cc4)cn3)cc2)cc1F,2.8%
8,CN1CCC(C(=O)N(Cc2ccc(-c3ccc(CNCCc4ccccc4)cn3)cc2)C2CCN(Cc3ccccc3)CC2)CC1,5.52%
9,CO/C(=C\C=C\c1cc2cc(Cl)c(Cl)cc2[nH]1)C(=O)NCC(C)(C)CN(C)C,13.2%
10,CN1CC=C(c2csc3ccc(NC(=O)Nc4ccc(-c5ccncc5)c5ccccc45)cc23)CC1,5.22%
11,O=C(Nc1cccc(C(F)(F)F)c1)c1cccc(S(=O)(=O)NC2CCCN(CC3CCCCC3)C2)c1 (stereo not drawn),7.14%
12,Cc1cc(N2CCCC2)nc(Nc2ccc(NC(=O)CC(C)C)cc2)n1,5.26%
13,N=c1c2nc(-c3c(F)cccc3Cl)[nH]c(=O)c2[nH]c(=O)n1-c1ccccc1,-0%
14,O=C(Nc1cccc(-c2cccc(-c3nc4cc(F)ccc4[nH]3)c2)c1)c1ccoc1,8.93%
15,COc1ccc(CCNCC(O)c2cccc(Br)c2)c(Cl)c1OC (stereo not drawn),3.03%
16,Cc1ccc(C(=O)Nc2ccc(-c3nc4ccccc4[nH]3)cc2)cc1S(=O)(=O)N1CCOCC1,3.17%
17,CN1CCN(c2ccnc3cc4c(cc23)N(C(=O)Nc2ccc3c(c2)CCCC3=O)CC4)CC1,1.47%
18,O=C(Nc1cccc(CN2CCCN(CC3CC3)CC2)c1)c1ccc(-c2ccccc2)cc1,4.79%
19,Cc1nc(C)c(-c2ccc(-c3ccc(F)cc3)cc2)c(O)c1Br,1.49%
20,CCOc1ccc(C(C)NC(=O)c2cc(Cl)ccc2OC)cc1OCC (stereo not drawn),-0%
21,Oc1ccc(Cc2ccccc2)cc1CNC1CCCCC1,3.5%
22,O=C(Nc1ccc(OC2CCN(Cc3ccccc3)CC2)c(Cl)c1)c1cccs1,3.33%

row,Compound,IFI
1,C=CCC(CC=C)N1C(=O)C(c2ccccc2)(c2ccccc2)N=C1N,3.7%
2,O=C(Nc1ccc(-c2cccc(-c3nc4cc(C(F)(F)F)ccc4[nH]3)c2)cc1)c1ccncc1,6.42%
3,Cc1nc(C)c(-c2ccc(Oc3ccc(OC(F)(F)F)cc3)cc2)c(O)c1I,-0%
4,Cc1ccc(-c2ccn(Cc3ccc(OCc4ccccc4)cc3)n2)cn1.Cc1ccc(-c2ccnn2Cc2ccc(OCc3ccccc3)cc2)cn1,1.65%
5,Cc1noc(C)c1-c1cccc(CNCc2ccc(-c3ccc(-c4nc5cc(C(F)(F)F)ccc5[nH]4)cc3)cc2)c1,4.81%
6,CCNC[C@H]1CCCN1CCOc1ccc(-n2cnc3cc(-c4ccc(Cl)cc4)sc3c2=O)cc1OC,7.03%
7,O=C(c1cncc(-c2ccccc2)c1)N(Cc1cncn1Cc1ccccc1F)CC1CC1,7.14%
8,CCCN(CCCN(CCCN(CCC)C(C)C)c1cc(C)nc(Nc2ccc(Cl)cc2)n1)C(C)C,8.76%
9,OC(CNc1ccnc(Nc2ccc(Cl)cc2)n1)c1ccccc1C(F)(F)F (stereo not drawn),14.4%
10,COc1ccc(O)c(Cc2cnc3nc(N)nc(N)c3c2C)c1,2.96%
11,O=C(NCCCCN1CCC(O)(c2ccc3c(c2)OCO3)CC1)c1ccc(NC(=O)c2ccc(Cl)cc2)cc1,0.75%
12,COc1cccc(CNC(=O)NC2CCN(c3ccnc(Nc4cc(OC)c(OC)c(OC)c4)n3)C2)c1 (stereo not drawn),6.45%
13,O=C(Nc1ccc(-c2cccc(-c3nc4ccccc4[nH]3)c2)cc1)c1cnn2cccnc12,7.48%
14,CC(C)C[C@@H](NC(=O)NC1CCC(CCN2C3CCC2CC(OC(=O)C(CO)c2ccccc2)C3)CC1)C(O)(c1ccccc1)c1ccccc1 (stereo partly drawn),12.8%
15,O=C(Nc1cccc(-c2ccc(-c3nc4cc(F)ccc4[nH]3)cc2)c1)c1cccnc1,7.41%
16,CCOc1cc(C(=O)NCC2CCN(CC3CCCCC3)CC2)ccc1-c1nc2cc(Cl)ccc2[nH]1,1.41%
17,Cc1ccc(/C=C/C(=O)NCCCCCN2CCCN(C(=O)Nc3ccc(Cl)c(Cl)c3)CC2)cc1,8.65%
18,O=C(Nc1ccc(Cl)cc1)Nc1ccc(-c2cccc(-c3nc4ccccc4[nH]3)c2)cc1,4.04%
19,Cc1nn(-c2cccc(C(F)(F)F)c2)c2sc(C(=O)NC3CCN(C(C)C)CC3)cc12,10%
20,COc1ccc(NC(=O)Nc2nc3ccccc3s2)cc1N1CCN(C)CC1,0.73%
21,Oc1ccc2nc(NCCCc3ccccc3)nc(NCCc3ccccc3)c2c1,14.1%
22,CN1CCC(COc2ccc(CN3CCC(NC(=O)c4cccc(Cl)c4)CC3)cc2)CC1,5.88%
